Laboratory results from the supplement of paper PMC4967469.

Tests used:
Assay in all cases: Viability of human cancer cell lines after 72 h of drug (GDSC screen)
[1] = compound: Cn1nnc2c(C(N)=O)ncn2c1=O [Temozolomide]; conditions: top dose 30 µM
Protocol: (§1)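 Human cancer cell lines in 384-well plates, medium with 10% serum, drug for 72 h over a 256-fold dose range (nine 2-fold or five 4-fold steps up to the top dose). Adherent lines were fixed and stained with the nucleic acid dye Syto60, suspension lines read with resazurin; signal relative to control wells, capped at 0 and 100%. One two-parameter sigmoid per drug and line, fitted in a mixed model over all curves with the slope shared within a line.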

[2] = compound: Oc1ccc2ccccc2c1SSc1c(O)ccc2ccccc12 [IPA-3]; conditions: top dose 32 µM; top dose inferred
Protocol: as §1

[3] = compound: CN(C)C/C=C/C(=O)Nc1ccc(C(=O)Nc2cccc(Nc3nccc(-c4cccnc4)n3)c2)cc1 [ZG-10]; conditions: top dose 10 µM; top dose inferred
Protocol: as §1

[4] = compound: COc1cc2c(Oc3ccc(NC(=O)C4(C(=O)Nc5ccc(F)cc5)CC4)cc3F)ccnc2cc1OCCCN1CCOCC1 [XL-880]; conditions: top dose 5.12 µM; top dose inferred
Protocol: as §1

[5] = compound: O=C(NOCC1CC1)c1ccc(F)c(F)c1Nc1ccc(I)cc1Cl [CI-1040]; conditions: top dose 10 µM; top dose inferred
Protocol: as §1

[6] = compound: CN1CCc2c(c3ccccc3n2Cc2ccc(C(=O)NO)cc2)C1 [Tubastatin A]; conditions: top dose 20 µM
Protocol: as §1

| Cell Line | AUC [1] | IC50 [1] | AUC [2] | IC50 [2] | AUC [3] | IC50 [3] | AUC [4] | IC50 [4] | AUC [5] | IC50 [5] | AUC [6] | IC50 [6] |
| --- | --- | --- | --- | --- | --- | --- | --- | --- | --- | --- | --- | --- |
| TMK-1 (stomach, adherent) | 0.949 | > 30 µM | 0.954 | > 32 µM | 0.77 | 4.02 µM | 0.803 | 2.71 µM | 0.652 | 1.7 µM | 0.978 | > 20 µM |
| KYSE-50 (oesophagus, adherent) | 0.989 | > 30 µM | 0.748 | 9.54 µM | 0.869 | 7.9 µM | 0.543 | 0.415 µM | 0.954 | > 10 µM | 0.99 | > 20 µM |
| HCC-56 (large intestine, adherent) | 0.986 | > 30 µM | 0.964 | > 32 µM | 0.917 | > 10 µM | 0.71 | 1.28 µM | 0.674 | 1.94 µM | 0.965 | > 20 µM |
| UACC-893 (breast, adherent) | 0.961 | > 30 µM | 0.98 | > 32 µM | 0.904 | > 10 µM | 0.927 | > 5.12 µM | 0.896 | > 10 µM | 0.976 | > 20 µM |
| NCI-H1437 (lung adenocarcinoma, adherent) | 0.985 | > 30 µM | 0.957 | > 32 µM | 0.816 | 5.84 µM | 0.767 | 1.98 µM | 0.543 | 0.821 µM | 0.976 | > 20 µM |
| H2369 (mesothelioma, adherent) | 0.982 | > 30 µM | 0.864 | 29.6 µM | 0.713 | 2.56 µM | 0.727 | 1.45 µM | 0.891 | > 10 µM | 0.984 | > 20 µM |
| DOK (head and neck, adherent) | 0.97 | > 30 µM | 0.953 | > 32 µM | 0.753 | 4.97 µM | 0.803 | 4.25 µM | 0.44 | 0.395 µM | 0.974 | > 20 µM |
| CAL-27 (head and neck, adherent) | 0.961 | > 30 µM | 0.838 | 22.2 µM | 0.637 | 1.5 µM | 0.755 | 1.76 µM | 0.561 | 0.922 µM | 0.944 | > 20 µM |
| NCI-H841 (small cell lung carcinoma, adherent) | 0.987 | > 30 µM | 0.975 | > 32 µM | 0.831 | 6.38 µM | 0.764 | 1.86 µM | 0.906 | > 10 µM | 0.988 | > 20 µM |
| WM-115 (melanoma, adherent) | 0.98 | > 30 µM | 0.982 | > 32 µM | 0.863 | > 10 µM | 0.645 | 0.884 µM | 0.48 | 0.545 µM | 0.983 | > 20 µM |
| SNU-387 (liver, adherent) | 0.978 | > 30 µM | 0.895 | > 32 µM | 0.715 | 2.79 µM | 0.477 | 0.275 µM | 0.703 | 2.54 µM | 0.983 | > 20 µM |

By IC50 is meant the dose at which the fit gives 50% viability; where the fit passes the top or lowest dose, that dose stands as a limit. AUC, from the same fit, is the share of area under the viability curve across the 256-fold dose range; values near 1 show little effect. For part of these data: Any top dose called inferred is not printed in the source and was worked back from the curve model.
